Assay [1] concerns the target T1, EGFR T790M/L858R (Homo sapiens (Human), UniProt P00533, L858R/T790M). The assay is described as follows: Omnia assay, EGFR (T790M/L858R) active enzyme. Conditions: biochemical, WT EGFR vs EGFR T790M/L858R. The method, then:
Kinase reactions were started with the addition of 45 μL of the ATP/Tyr-Sox peptide substrate mix and monitored every 71 seconds for 60 minutes at λex360/λem485 in a Synergy^4 plate reader from BioTek (Winooski, Vt.).

For assay [2], the target named is T1, EGFR T790M/L858R. The format is binding. Conditions: whole protein MS analysis.

These results are taken from patent US11096942B2, “Heterocyclic compounds and uses thereof” (Celgene CAR LLC, priority 2010, dated 2021).

Structures are written as SMILES. Where only a bound is given, the exact number is not on record here.

In the case of `C=CC(=O)Nc1cccc(Oc2nc(Nc3ccc(N4CCOCC4)cc3OC)ncc2C(F)(F)F)c1` [Compound I-1, N-(3-(2-(2-methoxy-4-morpholinophenylamino)-5-(trifluoromethyl)pyrimidin-4-yloxy)phenyl)acrylamide], the “Ratio WT/mutant” value at EGFR T790M/L858R [1] was >40. Moreover, the “covalent modification of EGFR T790M/L858R” value on EGFR T790M/L858R [2] is “covalently modify the protein”. The corresponding values for `C=CC(=O)Nc1cccc(Oc2nc(Nc3ccc(N4CCN(C(=O)CO)CC4)cc3OC)ncc2Cl)c1` [Compound I-3, N-(3-(5-chloro-2-(4-(4-(2-hydroxyacetyl)piperazin-1-yl)-2-methoxyphenylamino)pyrimidin-4-yloxy)phenyl)acrylamide] are >5 and “covalently modify the protein”. `C=CC(=O)Nc1cccc(Nc2nc(Nc3ccc(N4CCN(S(C)(=O)=O)CC4)cc3OC)ncc2C(F)(F)F)c1` [Compound I-17, N-(3-(2-(2-methoxy-4-(4-(methylsulfonyl)piperazin-1-yl)phenylamino)-5-(trifluoromethyl)pyrimidin-4-ylamino)phenyl)acrylamide]: at EGFR T790M/L858R [1], the “Ratio WT/mutant” value was >30.

Regarding `C=CC(=O)Nc1cccc(Nc2nc(Nc3ccc(N4CCN(C(=O)C(C)(C)C)CC4)cc3OC)ncc2C(F)(F)F)c1` [Compound I-34, N-(3-(2-(2-methoxy-4-(4-pivaloylpiperazin-1-yl)phenylamino)-5-(trifluoromethyl)pyrimidin-4-ylamino)phenyl)acrylamide], the “Ratio WT/mutant” value on EGFR T790M/L858R [1] is reported as >40. Still for that read-out and setting: with `C=CC(=O)Nc1cccc(Nc2nc(Nc3ccc(N4CCN(C(C)=O)CC4)cc3OC)ncc2Cl)c1` [Compound I-8, N-(3-(2-(4-(4-acetylpiperazin-1-yl)-2-methoxyphenylamino)-5-chloropyrimidin-4-ylamino)phenyl)acrylamide] the figure was >10. Same read-out and setting: the value for `C=CC(=O)Nc1cccc(Oc2nc(Nc3ccc(N4CCN(C(=O)OC(C)(C)C)CC4)cc3OC)ncc2C(F)(F)F)c1` [Compound I-42] was >1.

For `C=CC(=O)Nc1cccc(Oc2nc(Nc3ccc(N4CCN(C(=O)CO)CC4)cc3OC)ncc2C(F)(F)F)c1` [Compound I-11, N-(3-(2-(4-(4-(2-hydroxyacetyl)piperazin-1-yl)-2-methoxyphenylamino)-5-(trifluoromethyl)pyrimidin-4-yloxy)phenyl)acrylamide], the “Ratio WT/mutant” value at EGFR T790M/L858R [1] is >25. For `C=CC(=O)Nc1cccc(Nc2nc(Nc3ccc(N4CCOCC4)cc3OC)ncc2C(F)(F)F)c1` [Compound I-2, N-(3-(2-(2-methoxy-4-morpholinophenylamino)-5-(trifluoromethyl)pyrimidin-4-ylamino)phenyl)acrylamide], the “Ratio WT/mutant” value at EGFR T790M/L858R [1] was >20.
